# Assay results as given in the supplement of paper PMC3334620.
# Whole data set: some 33,000 sequences, median “E-score (-0.5 to 0.5)” near -0.032, cut for the highest 2% near 0.36. The list shows a part of the results.
# Target: T1, Sko1 (UniProt Q02100)
# T1 sequence: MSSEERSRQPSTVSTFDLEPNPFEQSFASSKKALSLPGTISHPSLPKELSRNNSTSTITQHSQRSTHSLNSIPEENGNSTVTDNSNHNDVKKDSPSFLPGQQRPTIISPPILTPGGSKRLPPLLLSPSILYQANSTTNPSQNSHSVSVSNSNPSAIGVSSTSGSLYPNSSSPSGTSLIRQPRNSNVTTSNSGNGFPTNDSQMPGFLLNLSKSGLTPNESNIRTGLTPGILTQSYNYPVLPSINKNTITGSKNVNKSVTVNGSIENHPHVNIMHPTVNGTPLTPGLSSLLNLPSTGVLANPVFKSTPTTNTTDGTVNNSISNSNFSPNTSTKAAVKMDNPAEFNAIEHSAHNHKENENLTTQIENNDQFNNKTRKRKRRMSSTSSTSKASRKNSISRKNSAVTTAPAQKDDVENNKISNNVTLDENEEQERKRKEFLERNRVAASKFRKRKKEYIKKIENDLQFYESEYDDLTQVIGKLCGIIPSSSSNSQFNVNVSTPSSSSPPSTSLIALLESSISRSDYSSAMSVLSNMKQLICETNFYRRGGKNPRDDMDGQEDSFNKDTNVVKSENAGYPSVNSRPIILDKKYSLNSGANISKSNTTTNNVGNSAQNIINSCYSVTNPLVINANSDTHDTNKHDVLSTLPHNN
# Assay: PBM E-score (8-mer binding enrichment) (E-score (-0.5 to 0.5)); higher = stronger / more preferred TF binding; most listed sequences are background and not binding sites
# Details: protein concentration: 200 nM; construct: GST-full length
# Procedure, shortened: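 E-scores (a modified Wilcoxon-Mann-Whitney statistic) were assigned by the Universal PBM Analysis Suite to every ungapped eight-base word pooled with its reverse complement. The input came from universal all-10-mer Agilent arrays made double-stranded by primer extension and probed with GST-tagged yeast transcription factors at about 100-200 nM. Fluorescent anti-GST detected bound protein, and masliner normalised the scans.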
row,Sequence,PBM E-score
1,CTAGACCA,-0.037
2,AAGTCTCA,-0.217
3,AACGCATC,0.121
4,AAAGATAG,-0.0272
5,CTAATGAA,0.122
6,AGTTAAGC,0.12
7,ACTAACAC,0.0291
8,CGCGAAAA,0.067
9,CCTAATCG,0.0533
10,CTTTTGAA,0.0978
11,CTTGGAGA,-0.198
12,ATAATACG,0.376
13,CAGGCCCG,-0.331
14,ACATACTG,0.0915
15,CACTCACG,0.161
16,AACGGAAA,0.0735
17,CGGTGCTC,-0.0908
18,AGTCTCGA,-0.0855
19,CTTCTCCC,-0.155
20,GTCCAGCA,-0.223
21,CTGATACC,-0.165
22,CGGCGCTC,-0.204
23,TCGCGTAA,0.393
24,AGAAATCG,-0.178
25,GACTCATA,0.129

row,Sequence,PBM E-score
1,AGTCCCCG,-0.265
2,AGTGAGAT,0.0689
3,AATTGATC,-0.18
4,CATAAGGG,-0.00264
5,GAAACACC,0.02
6,CCGCTGGC,-0.113
7,GCCCACTA,-0.0836
8,AGCCTATA,0.0406
9,AGGGTCGG,-0.333
10,CGGGTATA,0.00491
11,AGAGCACT,-0.00499
12,CCCTTGCG,-0.0753
13,ATGCGTAA,0.437
14,TATACCCA,-0.289
15,CGCAAGTC,-0.141
16,AGTGTATC,-0.0181
17,AGAGGCGG,-0.28
18,ATGACCGA,-0.0278
19,CTACCCGA,-0.103
20,AAAAGTTC,0.0682
21,ATTTTCTA,0.144
22,GGTACCAA,-0.108
23,AAACTCTG,0.0632
24,CGGGCACC,-0.184
25,CGTACTAG,0.273

row,Sequence,PBM E-score
1,GGACCTTA,-0.182
2,CCCTAGGC,-0.269
3,TAGTGAAA,0.0372
4,CACTGTCC,0.0415
5,CCCAGCCG,-0.243
6,GTACTTTA,0.122
7,CTGCAACC,-0.118
8,AACTGATA,0.0396
9,CATTTGAA,0.11
10,CTCTCCGC,-0.117
11,CGTGCTGC,0.0131
12,AATAGATG,0.266
13,GTTAGTTA,0.264
14,GCCGAGCC,-0.375
15,ACACTCGA,0.0224
16,AGGTAGAA,0.00627
17,AAAAGGGC,-0.273
18,CGAGTTGA,-0.0149
19,GCACGGAA,-0.0734
20,GCGCATCA,0.111
21,GGGACTAA,-0.297
22,AAAGGTGC,-0.179
23,AGCTGCTC,-0.207
24,CAGCTTAC,0.019
25,AAGTCCAA,0.0276

row,Sequence,PBM E-score
1,ATCGTACC,-0.0621
2,GGTAGGCA,-0.189
3,CACGCAAA,0.26
4,AATTTCCA,0.14
5,TACAGGGA,-0.171
6,AAGCGACC,-0.12
7,CGTCGGAC,-0.0512
8,GGGGGCTA,-0.299
9,AGAACTGG,-0.124
10,AACGACCA,0.093
11,AATGGCAT,0.308
12,AATACTGA,0.143
13,GGAGGACA,-0.107
14,ATGCTTCA,-0.0353
15,GGACCAGA,-0.111
16,TAAGACCA,0.0281
17,ACATACGG,0.0483
18,GGTCTAAA,-0.00433
19,CTCCACCA,-0.326
20,GAAACAAC,-0.0259
21,ACTTTCTA,0.0803
22,CGAGCTGC,-0.24
23,AATGAGCG,0.0936
24,CGATATCC,0.0777
25,CGTATAAC,0.355

row,Sequence,PBM E-score
1,ACGGCGTC,-0.0291
2,AATTGGTG,-0.00841
3,GCGTCCAC,-0.0966
4,GCTTAAAA,0.0242
5,CATTTCCA,0.0795
6,ATACTGCC,-0.108
7,CCACCTTA,-0.0986
8,CAGTGTCC,-0.0405
9,GTCAGGAA,0.179
10,ACGCTGAT,0.174
11,AACCGGCT,-0.357
12,GTAAAATA,0.184
13,ATAGCTTG,-0.0303
14,CTCGCCCC,-0.256
15,ATAATAAG,0.127
16,TAGTAAGA,0.0529
17,AGGCTAAC,-0.0653
18,CGGCGGTC,-0.32
19,CCTCACTC,-0.0833
20,CAACACCC,-0.18
21,GTGTTGTA,0.175
22,CTCCAGAA,0.058
23,ACATCTAT,0.21
24,AACAAGTC,-0.0521
25,CTCGGGGA,-0.209

row,Sequence,PBM E-score
1,AAGACATA,0.186
2,GGACATAA,0.0688
3,AGCACCCC,-0.265
4,GTGAGTTA,0.126
5,AGTGATGA,0.21
6,CGCGGGAA,-0.062
7,ATGGGGCA,-0.185
8,CAACTGAA,0.00872
9,GGAGATCA,-0.167
10,ACCCAGGC,-0.132
11,CCGCCGAA,-0.091
12,CTCGCAAG,0.0771
13,AGTATTAA,0.261
14,CACGGGAC,-0.234
15,GCCCAAGC,-0.124
16,AATGCGAC,0.145
17,AGTAGCGC,-0.0271
18,GCTTGGAC,-0.317
19,GGTCGCCA,-0.327
20,GCAGCCGC,-0.257
21,CTAAATTA,0.2
22,AAAACTTG,0.0918
23,CGGGCCAC,-0.187
24,CCATCCTA,-0.104
25,ACTAGTGA,0.0867

row,Sequence,PBM E-score
1,ATTAACCC,-0.0391
2,TAGAATCA,0.0343
3,CTCCCTTA,-0.122
4,CCCATGTC,0.0687
5,CCCAATGA,0.217
6,AAGGTGCT,-0.238
7,TCGAAAGA,0.0545
8,GACTAGGC,-0.0713
9,CTAAGCAC,0.0719
10,CTCCATCC,-0.385
11,AACAACCA,0.109
12,GGTATGGA,-0.0634
13,CATCACGG,0.107
14,ACGCGTAG,0.259
15,ATACAAGA,-0.0628
16,GGATCTAC,-0.0498
17,AACTGACC,-0.297
18,CGATGTAA,0.175
19,GAACTGGC,-0.125
20,ACTACGCG,0.245
21,AGACCACA,-0.167
22,CCGAATCG,-0.0905
